# Laboratory results as given in PMC4336329 (PLoS ONE, 2015).
# Hit rate of the full screen: of about 310,000 compounds, about 14,000 (4.5%) showed an effect of 50% or more. Effects have a minus sign here. The list shows a part of the results.
# Biological target: human ether-à-go-go-related gene (hERG) potassium channel (human, UniProt Q12809)
# Test: primary screen, population patch clamp on CHO cells stably expressing hERG
# 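Further: peak tail current of the secondary pulse compared with the same well before compound.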
# Sequence of human ether-à-go-go-related gene (hERG) potassium channel (Q12809 whole entry, looked up): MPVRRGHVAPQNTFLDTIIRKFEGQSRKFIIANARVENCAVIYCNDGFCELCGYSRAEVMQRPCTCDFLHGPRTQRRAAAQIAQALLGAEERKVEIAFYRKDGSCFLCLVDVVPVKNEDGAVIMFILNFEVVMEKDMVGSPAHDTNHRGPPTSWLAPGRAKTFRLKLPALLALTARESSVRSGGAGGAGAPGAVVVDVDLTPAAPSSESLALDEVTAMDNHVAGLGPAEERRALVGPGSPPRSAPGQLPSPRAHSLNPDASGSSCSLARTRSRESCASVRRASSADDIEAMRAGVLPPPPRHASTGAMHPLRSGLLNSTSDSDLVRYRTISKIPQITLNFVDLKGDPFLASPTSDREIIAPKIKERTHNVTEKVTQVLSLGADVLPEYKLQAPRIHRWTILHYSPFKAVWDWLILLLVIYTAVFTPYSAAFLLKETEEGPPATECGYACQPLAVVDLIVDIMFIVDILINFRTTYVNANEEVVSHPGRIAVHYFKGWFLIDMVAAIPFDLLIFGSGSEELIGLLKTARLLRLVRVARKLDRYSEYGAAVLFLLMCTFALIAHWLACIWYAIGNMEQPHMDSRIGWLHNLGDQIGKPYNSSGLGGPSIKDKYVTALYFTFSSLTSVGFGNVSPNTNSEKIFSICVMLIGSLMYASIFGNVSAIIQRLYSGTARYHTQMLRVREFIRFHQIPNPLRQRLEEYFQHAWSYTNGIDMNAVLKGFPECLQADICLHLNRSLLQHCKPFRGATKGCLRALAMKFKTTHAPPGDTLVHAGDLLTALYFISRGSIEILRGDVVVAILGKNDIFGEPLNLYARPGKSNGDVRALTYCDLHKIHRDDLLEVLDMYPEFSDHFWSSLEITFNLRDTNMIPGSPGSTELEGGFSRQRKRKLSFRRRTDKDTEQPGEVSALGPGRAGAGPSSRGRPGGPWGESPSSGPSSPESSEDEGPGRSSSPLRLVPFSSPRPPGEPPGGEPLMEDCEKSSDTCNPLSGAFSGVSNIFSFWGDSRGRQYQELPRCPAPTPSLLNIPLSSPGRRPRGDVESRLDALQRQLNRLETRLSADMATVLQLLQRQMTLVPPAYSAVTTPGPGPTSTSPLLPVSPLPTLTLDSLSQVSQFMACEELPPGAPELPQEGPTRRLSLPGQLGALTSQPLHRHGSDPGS
row,SMILES,"hERG current change (%, negative = inhibition) at 10uM"
1,Cc1ccc(C(=O)Nc2ccccc2)cc1S(=O)(=O)N1CCN(C)CC1,8.48%
2,CC(=O)NS(=O)(=O)c1ccc(Nc2ccc([N+](=O)[O-])c3nonc23)cc1,18.2%
3,O=c1c2ccccc2c(C=Nc2ccc(S(=O)(=O)Nc3ncccn3)cc2)c(O)n1-c1cccc(Cl)c1,10.7%
4,CC1(C)CC(=O)C=C(NCc2cccnc2)C1,-3.78%
5,COc1cc(CO)ccc1OCc1ccc(Cl)nc1,0.213%
6,C(/C=C/C=C/Nc1ccccc1)=Nc1ccccc1,7.44%
7,CC(=O)c1cc(F)c(N2CCN(C(=O)COc3ccc(F)cc3)CC2)cc1C,-76.3%
8,CCOC(=O)c1ccc(NC(=O)CNC(=O)C23CC4CC(CC(C4)C2)C3)cc1,12.2%
9,CCCCN(C(=O)c1cccc(-n2cnnn2)c1)c1c(N)n(CC(C)C)c(=O)[nH]c1=O,3.88%
10,CCC(C)(C)n1nnnc1C(c1cc(OC)ccc1OC)N1CCN(Cc2ccccc2)CC1 (stereo not shown),-15.5%
11,COc1ccc(CC(=O)NC(C)c2nnc(SCC(=O)Nc3cc(C)ccc3OC)n2C)cc1 (stereo not shown),-9.28%
12,CC12C(=O)N(NC(=O)c3ccncc3)C(=O)C1C1C=CC2C1 (stereo not shown),10.1%
13,CCOc1ccc(/C=N/Nc2ccccn2)cc1OC,-11.9%
14,O=C(NCc1ccccc1)C(=O)NCC1OCCCN1S(=O)(=O)c1cccs1 (stereo not shown),-6.21%
15,CCOC(=O)c1ccc(NC(=O)Nc2ccc(F)cc2)cc1,11.9%
16,CC(=O)NCCNc1nc2c(-c3cccc(C(F)(F)F)c3)nnn2c2ccccc12,29.9%
17,CC1(C)CC(=O)C(N=Nc2ccc(S(=O)(=O)N3CCCCCC3)cc2)=C(O)C1,7.18%
18,O=C(COc1ccccc1[N+](=O)[O-])N/N=C/c1ccc(O)cc1,-2.04%
19,CCN(CC)CCNC(=O)/C(=N\O)c1ccccn1,17.1%
20,CN(C)/C=C/C(=O)c1ccc(F)cc1,-0.195%
21,CCc1ccc(C2C(C#N)=C(N)N(N(C)C)C3=C2C(=O)CCC3)s1 (stereo not shown),-21.7%
22,O=C(Nc1nccs1)c1ccc(N2C(=O)C3CCCCC3C2=O)cc1 (stereo not shown),16.7%

row,SMILES,"hERG current change (%, negative = inhibition) at 10uM"
1,CC[N+]1(C)[C@@H]2CC[C@H]1CC(OC(=O)[C@H]1CCC(C(=O)OC3C[C@H]4CC[C@@H](C3)[N+]4(C)CC)(c3ccccc3)c3ccccc31)C2.[Cl-] (stereo partly shown),9.41%
2,O=C(NCCc1ccccc1)c1ccc([N+](=O)[O-])cc1,-17.4%
3,COC(=O)c1sccc1NC(=O)c1ccnn1C,16.9%
4,Cc1cc(-n2cnnn2)cc(C)c1S(=O)(=O)NCCOc1ccccc1,-38.5%
5,O=C(NCCc1ccc(Cl)cc1)c1ccc2nc[nH]c2c1,-1.98%
6,O=S1(=O)CC(O)C(Nc2ccccc2)C1 (stereo not shown),-0.706%
7,COc1ccc2[nH]c(=O)cc(C(=O)O)c2c1,0.994%
8,CN(C)c1nn(C(=O)Nc2cccc(C(F)(F)F)c2)cc1-c1ccccc1,5.64%
9,O=C(CCCn1cc([N+](=O)[O-])cn1)N1CCCCC1,11.2%
10,CCn1c(SCC(=O)N2CCN(c3ccc(F)cc3)CC2)nc2ccccc2c1=O,-45.2%
11,CCN(CC)CCOC(=O)c1ccc2c(c1)OCCO2.Cl,-11.4%
12,C(=Nc1ccc(N2CCOCC2)cc1)c1c[nH]c2ccccc12,14%
13,Cc1ccc(S(=O)(=O)N(C)c2ccc(OC(=O)c3ccc(=O)[nH]c3)cc2)cc1,-28.7%
14,O=C1/C(=C/c2cccs2)Sc2ccccc21,8.58%
15,CC1CCCCC1NC(=O)c1cncc(Br)c1 (stereo not shown),11.4%
16,CC(=O)Cn1ncc(N2CCCCC2)c(Cl)c1=O,17.8%
17,O=C(Nc1nnc(S(=O)(=O)N2CCCC2)s1)c1ccccc1F,14.7%
18,CC1CCCN(C(=O)c2cccc(S(=O)(=O)Nc3cc(C(F)(F)F)ccc3Cl)c2)C1 (stereo not shown),13.4%
19,CC(C)CNC1=CC(=O)CC(c2ccco2)C1 (stereo not shown),6.11%
20,CC1=NN(c2ccccc2)C(=O)C1(C)C,19.5%
21,COc1ccc(N2C(=O)CSC2c2cccc(F)c2)c(OC)c1 (stereo not shown),12.1%
22,Nc1nonc1-n1nnc(C(=O)N/N=C/c2cccc(Cl)c2)c1-c1ccc2c(c1)OCO2,13.4%

row,SMILES,"hERG current change (%, negative = inhibition) at 10uM"
1,Cc1c(C(=O)N2CCC3(CC2)OCCO3)oc2ccccc12,-8.31%
2,CCOC(=O)N1CCN(C(=O)C(C)n2nc(C)n3c(cc4sccc43)c2=O)CC1 (stereo not shown),-4.51%
3,Cc1ccc(S(=O)(=O)CCC(=O)OCC(=O)N2CCN(S(=O)(=O)c3ccccc3)CC2)cc1,22.6%
4,CCOC(=O)c1c(CN2CCN(c3ccccc3)CC2)oc2ccc(O)cc12,-4.3%
5,O=C(N/N=C/c1cccc(O)c1)c1ccc(COc2cccc3cccnc23)cc1,22.8%
6,COc1ccccc1CC(=O)NN1C(=O)c2ccccc2C1=O,9.7%
7,Cc1noc2ncnc(Sc3ccc(Cl)cc3)c12,16.3%
8,O=C(COc1ccc(Cl)cc1)NNC(=O)CSc1nncs1,8.43%
9,COc1cccc(CN2CCN(S(=O)(=O)c3ccccc3)CC2)c1OC,-4.11%
10,CCOc1ccc2[nH]c(C(=O)N/N=C/c3cc(OC)c(OC)c(OC)c3)cc2c1,18.3%
11,Cc1cc(Cl)ccc1OCCCC(=O)NCc1cccs1,-5.7%
12,O=S(=O)(NC(=NCc1ccccc1)c1ccccc1)c1ccccc1,12.6%
13,O=C(CCl)Nc1cccc(Oc2cnccn2)c1,7.22%
14,COC(=O)c1cnn2c1C(=O)N(Cc1cccs1)CC2,24.3%
15,CNC(C(=O)c1ccccc1)C(OC)c1ccccc1.[O-][Cl+3]([O-])([O-])O (stereo not shown),6.4%
16,Cc1nn(C)c(C)c1CN(C(=O)CCc1nnc(Cc2c[nH]c3ccccc23)o1)C(C)C,-0.0383%
17,COc1cc(NC(=O)c2ccccc2)c(OC)cc1NC(=O)Cc1cccs1,7.34%
18,CN(Cc1ccccc1)S(=O)(=O)c1cn(C)cn1,-3.93%
19,Cc1occc1-c1nnc(SCC(=O)Nc2nc(C(C)(C)C)cs2)o1,-4.25%
20,COCCn1c(=NC(=O)c2cccs2)sc2cc(NC(C)=O)ccc21,-8.04%
21,Cc1noc(C)c1S(=O)(=O)Nc1ccc(C(=O)N2CCCCC2)cc1,-2.71%
22,Cc1c(C(=O)N2CCC3(CC2)OCCO3)sc2ncnc(N3CCc4ccccc4C3)c12,-33.7%

row,SMILES,"hERG current change (%, negative = inhibition) at 10uM"
1,C[C@@H]1C(=O)O[C@H]2C[C@@]34[C@H]5C[C@@H](C(C)(C)C)[C@]36[C@@H](OC(=O)[C@@H]6O)O[C@@]4(C(=O)O5)[C@]21O,21%
2,COc1ccc(C(C)NC(=O)c2ccncc2)cc1 (stereo not shown),10.6%
3,Cc1ccc(NC(=O)OCc2cn(-c3ccc(Cl)cc3)nn2)cc1,-14.3%
4,Cc1c(NC(=O)CSc2nnc3sc4ccccc4n23)c(=O)n(-c2ccccc2)n1C,6.99%
5,Cc1ccccc1NC(=O)c1ccccc1NC(=O)Cc1cccc2ccccc12,16.6%
6,O=C(O)c1ccc(Cl)cc1NC(=O)C1CCCO1 (stereo not shown),-2.58%
7,COc1ccc(NC(=O)C(NC(=O)c2ccc(C)cc2)c2ccccc2)cc1 (stereo not shown),14.3%
8,CCCNC(=O)c1c[nH]c2ccc(S(=O)(=O)N(C)c3ccc(OCC)cc3)cc2c1=O,12%
9,C=CCc1c(C)nc2ccc(C(=O)OCC)cc2c1Cl,18.3%
10,N#Cc1cc([N+](=O)[O-])ccc1NC(=O)CSc1n[nH]c(=O)n1C1CC1,1.42%
11,Cn1nc(C(F)(F)F)c(C#N)c1N1CCN(c2ccccn2)CC1,-28.7%
12,COc1ccc2c(c1)N1CCN=C1N2C.Cl,-4.02%
13,CCOC(=O)c1cc(-c2nnc(-c3cc(OC)c(OC)c(OC)c3)o2)c(C)nc1C,-3.04%
14,CCOC(=O)Cc1csc(NC(=O)c2c(-c3ccccc3)noc2C)n1,-10.1%
15,CCOC(=O)c1nnn2c1nc(N1CCN(c3ccccc3)CC1)c1ccccc12,-62.4%
16,CCOC(=O)C1CCCN(C/C=C/c2ccccc2)C1 (stereo not shown),-24.5%
17,O=C(CSc1nc(=O)n2ccccc2n1)NCc1ccc2c(c1)OCO2,-37.8%
18,CCOc1ccc(CCNC(=O)C2CC(=O)N(CCc3ccc(OC)c(OC)c3)C2)cc1OCC (stereo not shown),-4.11%
19,CN(C)C1=NC[C@H](Cc2ccccc2)N1CC1CCCC1,-16.9%
20,CC(=C/c1ccco1)/C=N/NC(=O)c1ccncc1,12.4%
21,CCNC(=S)NNC(=O)c1cc(-c2ccc(OCC)cc2)nc2ccccc12,-2.22%
22,N/C(=N\N=C\c1ccc(O)cc1O)N[N+](=O)[O-],9.87%
